Assay results from the supplement of paper PMC4967469.
By IC50 is meant the dose at which the fit gives 50% viability; a fit beyond the top or the lowest dose is shown as a bound at that dose. The AUC spans the tested range (256-fold, ending at the top dose) of the same fit; the more sensitive the line, the further below 1. The top dose, if marked as inferred, is not printed in the source and was worked back from the curve model.

Columns and labels:
Experiment in all cases: Viability of human cancer cell lines after 72 h of drug (GDSC screen)
[1] = compound: CCN1CCC(n2cc(CNc3cc(Cl)c4ncc(C#N)c(Nc5ccc(F)c(Cl)c5)c4c3)nn2)CC1 [KIN001-266]; conditions: top dose 20 µM; top dose inferred
Description: (§1)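 Human cancer cell lines in 384-well plates, medium with 10% serum, drug for 72 h over a 256-fold dose range (nine 2-fold or five 4-fold steps up to the top dose). Adherent lines were fixed and stained with the nucleic acid dye Syto60, suspension lines read with resazurin; signal relative to control wells, capped at 0 and 100%. One two-parameter sigmoid per drug and line, fitted in a mixed model over all curves with the slope shared within a line.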

[2] = compound: O=C1/C(=C/c2cccs2)CC/C1=C\c1cccs1 [CCT007093]; conditions: top dose 6.6 µM; top dose inferred
Description: as §1

[3] = compound: C=CC(=O)N1CCc2ccc(-n3c(=O)ccc4cnc5ccc(-c6cnn(C)c6)cc5c43)cc21 [QL-XII-47]; conditions: top dose 10.24 µM; top dose inferred
Description: as §1

[4] = compound: COc1ccc(-c2cc3nccn3c(Nc3ncccc3C(N)=O)n2)cc1OC [BAY 61-3606]; conditions: top dose 8 µM; top dose inferred
Description: as §1

| Cell Line | AUC [1] | IC50 [1] [µM] | AUC [2] | IC50 [2] [µM] | AUC [3] | IC50 [3] [µM] | AUC [4] | IC50 [4] [µM] |
| --- | --- | --- | --- | --- | --- | --- | --- | --- |
| A375 (melanoma, adherent) | 0.888 | 15.6 | 0.988 | > 6.6 | 0.434 | 0.436 | 0.629 | 1.06 |
| A388 (skin, adherent) | 0.889 | > 20 | 0.915 | > 6.6 | 0.651 | 1.79 | 0.82 | 5.5 |
| A427 (non-small cell lung carcinoma, adherent) | 0.875 | 20 | 0.969 | > 6.6 | 0.75 | 3.37 | 0.776 | 3.21 |
| A431 (skin, adherent) | 0.828 | 11.7 | 0.982 | > 6.6 | 0.508 | 0.674 | 0.718 | 2 |
| A498 (kidney, adherent) | 0.965 | > 20 | 0.875 | > 6.6 | 0.829 | > 10.2 | 0.977 | > 8 |
| A673 (rhabdomyosarcoma, adherent) | 0.962 | > 20 | 0.981 | > 6.6 | 0.852 | 6.69 | 0.903 | > 8 |
| A704 (kidney, adherent) | 0.863 | 16.4 | 0.978 | > 6.6 | 0.857 | 7.91 | 0.977 | > 8 |
| A2058 (melanoma, adherent) | 0.893 | 19.3 | 0.977 | > 6.6 | 0.533 | 0.777 | 0.942 | > 8 |
| A2780 (ovary, semi-adherent) | 0.817 | 11.7 | 0.951 | > 6.6 | 0.413 | 0.365 | 0.686 | 1.69 |
| ABC-1 (lung adenocarcinoma, adherent) | 0.931 | > 20 | 0.974 | > 6.6 | 0.646 | 1.77 | 0.843 | 7.5 |
| ACHN (kidney, adherent) | 0.889 | > 20 | 0.965 | > 6.6 | 0.748 | 3.71 | 0.659 | 1.48 |
| AGS (stomach, adherent) | 0.862 | 14.3 | 0.986 | > 6.6 | 0.81 | 4.7 | 0.854 | 5.31 |
| ALL-PO (lymphoblastic leukaemia, suspension) | 0.721 | 5.53 | 0.965 | > 6.6 | 0.536 | 0.805 | 0.519 | 0.564 |
| ALL-SIL (T-cell leukaemia, suspension) | 0.86 | 13.1 | 0.984 | > 6.6 | 0.535 | 0.787 | 0.717 | 1.85 |
| AM-38 (glioma, semi-adherent) | 0.858 | 16.9 | 0.967 | > 6.6 | 0.652 | 1.71 | 0.888 | > 8 |
| AMO-1 (haematopoietic neoplasm, suspension) | 0.671 | 3.45 | 0.991 | > 6.6 | 0.838 | 5.58 | 0.878 | 6.14 |
| AN3-CA (endometrium, adherent) | 0.857 | 18.8 | 0.976 | > 6.6 | 0.743 | 3.42 | 0.799 | 4.27 |
| ARH-77 (myeloma, suspension) | 0.88 | 19.3 | 0.983 | > 6.6 | 0.589 | 1.11 | 0.766 | 2.86 |
| ASH-3 (thyroid, adherent) | 0.981 | > 20 | 0.984 | > 6.6 | 0.654 | 1.71 | 0.577 | 0.814 |
| ATN-1 (T-cell lymphoblastic leukaemia, suspension) | 0.874 | 17.3 | 0.972 | > 6.6 | 0.508 | 0.673 | 0.942 | > 8 |
| AU565 (breast, adherent) | 0.859 | 19.8 | 0.759 | 2.54 | 0.797 | 5.45 | 0.849 | – |
| AsPC-1 (pancreas, adherent) | 0.94 | > 20 | 0.946 | > 6.6 | 0.897 | > 10.2 | 0.966 | > 8 |
| BB30-HNC (head and neck, adherent) | 0.861 | 16.4 | 0.981 | > 6.6 | 0.655 | 1.7 | 0.768 | 2.93 |
| BB65-RCC (kidney, adherent) | 0.848 | 18.4 | 0.979 | > 6.6 | 0.462 | 0.497 | 0.827 | 5.88 |
| BC-1 (B-cell lymphoma, suspension) | 0.837 | 10.7 | 0.989 | > 6.6 | 0.294 | 0.187 | 0.656 | 1.26 |

| Cell Line | AUC [1] | IC50 [1] [µM] | AUC [2] | IC50 [2] [µM] | AUC [3] | IC50 [3] [µM] | AUC [4] | IC50 [4] [µM] |
| --- | --- | --- | --- | --- | --- | --- | --- | --- |
| BCPAP (thyroid, adherent) | 0.782 | 7.55 | 0.926 | > 6.6 | 0.74 | 2.86 | 0.768 | 2.73 |
| BE2-M17 (neuroblastoma, adherent) | 0.894 | > 20 | 0.975 | > 6.6 | 0.98 | > 10.2 | 0.827 | 5.08 |
| BE-13 (lymphoblastic leukaemia, suspension) | 0.844 | 13 | 0.956 | > 6.6 | 0.723 | 2.62 | 0.787 | 3.24 |
| BEN (non-small cell lung carcinoma, adherent) | 0.873 | > 20 | 0.982 | > 6.6 | 0.919 | > 10.2 | 0.968 | > 8 |
| BFTC-905 (bladder, adherent) | 0.889 | 17.2 | 0.99 | > 6.6 | 0.564 | 0.931 | 0.755 | 2.37 |
| BFTC-909 (kidney, adherent) | 0.912 | > 20 | 0.985 | > 6.6 | 0.828 | 6.14 | 0.948 | > 8 |
| BHT-101 (thyroid, adherent) | 0.853 | 16.4 | 0.984 | > 6.6 | 0.634 | 1.52 | 0.961 | > 8 |
| BHY (head and neck, adherent) | 0.793 | 9.13 | 0.984 | > 6.6 | 0.343 | 0.234 | 0.765 | 2.93 |
| BICR10 (head and neck, adherent) | 0.983 | > 20 | 0.985 | > 6.6 | 0.874 | > 10.2 | 0.956 | > 8 |
| BICR22 (head and neck, adherent) | 0.976 | > 20 | 0.968 | > 6.6 | 0.95 | > 10.2 | 0.983 | > 8 |
| BICR78 (head and neck, adherent) | 0.922 | > 20 | 0.951 | > 6.6 | 0.852 | 9.88 | 0.972 | > 8 |
| BL-41 (Burkitt lymphoma, suspension) | 0.834 | 8.94 | 0.994 | > 6.6 | 0.254 | 0.156 | 0.696 | 1.52 |
| BPH-1 (prostate, adherent) | 0.829 | 14.3 | 0.937 | > 6.6 | 0.257 | 0.118 | 0.754 | 2.95 |
| BT-20 (breast, adherent) | 0.966 | > 20 | 0.957 | > 6.6 | 0.564 | 1 | 0.978 | > 8 |
| BT-474 (breast, adherent) | 0.863 | > 20 | 0.95 | > 6.6 | 0.552 | 0.902 | 0.887 | > 8 |
| BT-483 (breast, adherent) | 0.973 | > 20 | 0.951 | > 6.6 | 0.736 | 5.64 | 0.967 | > 8 |
| BV-173 (chronic myeloid leukaemia, suspension) | 0.883 | 16.9 | 0.982 | > 6.6 | 0.645 | 1.53 | 0.88 | 6.58 |
| Becker (glioma, adherent) | 0.976 | > 20 | 0.93 | > 6.6 | 0.859 | > 10.2 | 0.93 | > 8 |
| BxPC-3 (pancreas, adherent) | 0.847 | 17.5 | 0.961 | > 6.6 | 0.816 | 6.58 | 0.702 | 1.99 |
| C2BBe1 (large intestine, adherent) | 0.851 | 18.7 | 0.983 | > 6.6 | 0.905 | > 10.2 | 0.851 | 7.5 |
| C3A (liver, adherent) | 0.988 | > 20 | 0.984 | > 6.6 | 0.922 | > 10.2 | 0.817 | 4.69 |
| C32 (melanoma, adherent) | 0.978 | > 20 | 0.987 | > 6.6 | 0.928 | > 10.2 | 0.985 | > 8 |
| C-4-I (cervix, adherent) | 0.96 | > 20 | 0.986 | > 6.6 | 0.981 | > 10.2 | 0.899 | > 8 |
| C-33-A (cervix, adherent) | 0.722 | 5.35 | 0.978 | > 6.6 | 0.678 | 2.01 | 0.674 | 1.54 |
